Reference: the supplement of paper PMC12632987
In all, about 1,800 sequences were measured (“median log2 fold change of GCK-ALFA target abundance (FLAG IP / Myc IP barcode read proportion)”: median about 0.14, lowest 2% from about -0.84 on). This is one part of the list.

T1: TRAF2, Q12933
T1 chain: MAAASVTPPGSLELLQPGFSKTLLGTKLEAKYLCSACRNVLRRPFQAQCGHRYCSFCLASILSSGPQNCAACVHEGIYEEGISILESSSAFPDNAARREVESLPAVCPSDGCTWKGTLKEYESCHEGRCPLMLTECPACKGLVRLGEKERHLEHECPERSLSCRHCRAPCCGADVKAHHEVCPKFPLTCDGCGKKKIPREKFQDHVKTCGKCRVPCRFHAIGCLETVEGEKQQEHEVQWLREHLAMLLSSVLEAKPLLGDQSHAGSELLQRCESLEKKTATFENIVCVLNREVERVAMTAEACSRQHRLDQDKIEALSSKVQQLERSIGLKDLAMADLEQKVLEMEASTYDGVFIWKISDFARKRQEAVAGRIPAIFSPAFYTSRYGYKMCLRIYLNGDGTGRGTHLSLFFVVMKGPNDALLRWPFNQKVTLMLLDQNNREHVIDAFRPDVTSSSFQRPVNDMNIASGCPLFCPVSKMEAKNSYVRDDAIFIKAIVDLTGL

B1: traf2_out_9_17_2625 (protein)
chain: AEAEERRREHLLEAAEEILEELVKRGLITEEEAEEILERVREAIERGMSPEEVIALFLGDIASVLLFDKNLSLKEVQRIVGEVYRRLRELLRRREEEERA
B2: traf2_out_3_89_2286 (protein)
chain: SSEREEKLEELRKIIDRYLRGFRKSATRVAKEMLEEGYSLETLRGVLEASRTALIEEIREIAKERGLSEEDIKELVEEATKRLDEIVAEILAEAEKARAA
B3: traf2_out_14_166_1288 (protein)
chain: MSPEEIERIREIVDKLEPLTKEAVAEAEALLAENAGRLTPEQLARANELLAIARRNIGSSAINALREMAKLAKEAGLEETAKKFKALAEKLEKKLKELNK
B4: traf2_out_18_3_1918 (protein)
chain: SEEKLKEVSEKIDKIVDEARKKAEEALERGAKEHPEFKERFEELREDLEAGAGPFGILEALAELFKEAGDEESAKEIEEFLREKKKELQKLVDEYEELLK
B5: traf2_out_11_155_726 (protein)
chain: SKFKEAQNKIVDFNLEVGDELLKKVEEIIKEIEKEDPEVAKKLREVVEKYKKFSNRSAARAAIDLLREEGYEEYAERLEKALEEAQRKMSKKTQEIEKEL
B6: traf2_out_1_27_993 (protein)
chain: SDKEIAERIRKASKEMANSSLEEKLKIAKELIREMAEIGKGDARTAAVILVSTMKTDEEFEALLKAIEETFKELGWSEEEIEEVRRQMETMWKLLKKAYA
B7: traf2_out_18_167_1849 (protein)
chain: EKEIEEKRRELSDRLVQLSEVKRLARRALQALETDPSTVPATLAALEAAAASIPELQPLVAAARAALAAGDREGLRATLEALIEKAQKLMNEVLKEYEAL
B8: traf2_out_15_180_1321 (protein)
chain: MTEEELQRRIDLANEVADRVQDRLRELLAANPELSPEERAALRELARSLTTLLLNGEWAEAEAALARAEARLSPRAAAVARELYAFAREVVAAAKAELAA
B9: traf2_out_11_155_731 (protein)
chain: EKKEKARREIVDFAIEQGDELEAFVEALIKEVEKEDPELAKELRAVFEEHRKYSARSAALAAIDVLRKHGYEERAEELEKKIEEANKKASEFIKKIEEEL
B10: traf2_out_20_3_2051 (protein)
chain: EELEKELEKELEKLEKLLKEIEKLVDPETAAKLKELLEKVKKAKKEGYEEFLIALSELRRALLEFAEEARAAGKEEVAALLEEAAEEVQEALNIIYKIIE
B11: traf2_out_9_17_2621 (protein)
chain: AAAAEAERAAILEVTDEILEELIKEGLITEEEAEKIREKVEEAIAAGKTPEEVKALFLGSIASILLQPDGLSVQEAQKVVGEVYRRWNELLAARRAAAAA
B12: traf2_out_1_156_902 (protein)
chain: SNADKQYEALKAYLHQPKRSAILRAVAGHLADAEDILEEARREGLPEEVLERLEELRDRIKALLGRMVSDTSLTDEELEALLAEAKALAEEARKILEEAR
B13: traf2_out_6_169_2489 (protein)
chain: SMKEKLEKEAKEKYERAKELLEIAETIYNQVINNKKYDKIETYIEALENILSATKRQYDLAIEAYKKLGKEEEAKKLEKEKEEVTEKIKKMIEEIKELKK
B14: traf2_out_20_3_2076 (protein)
chain: KELLEELEKELDKAIKLLKEAAAKADKETAKKLKELIEELKKSRELSISDRLVKVSEVRRKVRELAEKAKAAGKKELAALLEEAADELNRAAQLLYKILE
B15: traf2_out_13_95_1068 (protein)
chain: SKETAKKINELADKAEEEVLALLDAAQAALADDPEAVAALEAAREAARTRGIRAAIHILREAQAAHPEHADEFAALIAELEAIRRELGRKVAEIIKEEKE
B16: traf2_out_6_166_2468 (protein)
chain: EEELLKRIREIVEELGKYEPEIVIEAFEILAKERSDERATIARQAATGVRQAQKAGLDVTTILSAFADGLLALGVPVETILELFEEALKIAEKLAKEKEK
B17: traf2_out_18_3_1943 (protein)
chain: KEEELKKISEEIDKIIDEVTARAREELDRLLAEHPELAAEAEALRADLDAGAGPFGILDELARLWERAGAADEAAAARAFLREKRKKLQELVDKYEELRK
B18: traf2_out_14_17_1293 (protein)
chain: KIIERLEEIAKRAKELAEKYPELALELGRLARLAESTLVLAEMYEEDPRYKPELLQGLRNLAREAKEVAEKAKPISEEAVKRLEEMAERAEEILEEVEEE
B19: traf2_out_5_192_2336 (protein)
chain: SAEEEARERRLRERAEEILREAEERAKKISERTGLDYATVLATLAFSRVVARAESAEEARLMLDYIVEMITARDPSWAPIAEGEKAAALRAIDAIEAAEP
B20: traf2_out_15_180_1317 (protein)
chain: MTEEELEKRIELANEVADKVQDKLDALLAAHPSLTPEEKAALRELARSITTLLFNGEEAEAEAALARAEARLSPEAAAVARELYEFAKKLVEEAKKKLAE
B21: traf2_out_12_187_959 (protein)
chain: SNEDELLEAAKAGVKQALKELEKYAPKDPRFKELLKKLKELEELMKKVPEIASDALVAASAILRAIRLFEAGLPQEEIDAAYEEAEKTLEEALAEAEKLL
B22: traf2_out_20_3_2221 (protein)
chain: DELKEEVRKELEAIEKLLEQAKPLLPAEDYARLKELLEKAKKALETDLTDALVYLSELRREALALAQRAAAAGNAELAALLEEMAERANRAAGLVLKMIE
B23: traf2_out_17_162_1506 (protein)
chain: SEIEELEKEIEEELEELEKELERLEEKMKDLENLSKEEITDLLVEASELRRRALELAELVEEHKELLGEERAEELRKRAEEIAERLQRIANKAYEELLKK
B24: traf2_out_13_95_1148 (protein)
chain: SAETAAKIMAVADEMVDKVIAILEELLAKAKEKGVDTAPIQEALDLAKNRSINEAIHKLKELAKKYPEMKEELEAAIEKIEEIRREAGRRVAEIIKEEKA
B25: traf2_out_13_95_1104 (protein)
chain: SAETAEKIMKIADEMLDKVEKILEELLKIAKEKGKLEEEIKEALHLARYQSINEAIHKLKELAKKYPEFKEELEAAIKEIEALKKEAGRKVAEILKEEKK
B26: traf2_out_13_95_1071 (protein)
chain: TRELAEKINEIADEAEARALALLAAAKAELADDPEAVAVLDEAARLAETHGIRAAIHLLREAKAARPEHAAAFDALIAELEAIRREAGRRVAALIKEAEE
B27: traf2_out_14_166_1284 (protein)
chain: MSPEEIERIRKIVDELEPLTEKAVEEAERILEENRERLSPEQLARLEELLEIARRNIGSSAINALLEMAEIFEEAGLEEAAERFRRLAEELEKKLSELNK
B28: traf2_out_11_155_684 (protein)
chain: EKKQEINNELVNKMSEIADRAKAEARAIADAAAAAHPEAKAALDATLAATAGHGISTFLGSMAATFEALGLDDEAARVRALLAQAQKEMNAAVKEAEAKL
B29: traf2_out_16_104_1377 (protein)
chain: DAARRAAFQAAIARLEEIAERANRLANEIYKLMETASEEEKEKLSDALVKVSELRREALAAAEAARAALAAGGDLAAVEAALAKLEKRLEELEKEVKELK

Target: T1, TRAF2, Q12933
Experiment: median log2 fold change of GCK-ALFA target abundance (FLAG IP / Myc IP barcode read proportion) (log2 ratio); each designed protein is fused to an ALFA-tag nanobody in HEK293 cells to bring the named protein to FLAG-tagged glucokinase (GCK); Myc marks an untargeted standard; higher = target protein stabilised (more abundant)
Details: target protein: 3xFLAG-MCP-GCK-ALFA reporter; HEK293 landing pad (RPLP)
Outline: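 HEK293 landing-pad cells received a recombined binder library fused to the ALFA nanobody and were induced with 2 μg mL^−1 doxycycline, then transfected with a plasmid encoding a FLAG-tagged target and a Myc-tagged standard. Lysates were collected after 48 h for anti-FLAG and anti-Myc immunoprecipitation, and the circular RNA barcodes were reverse transcribed, amplified and sequenced. Target abundance for each binder is the median log2 ratio of FLAG to Myc barcode read proportions. Barcodes had to reach a proportion of at least 10^−7 in both replicates, each binder needed at least 3 barcodes per replicate, a pseudocount of 10^−6 was applied, and the two replicates were pooled.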

Binder | median log2 fold change
B1 | 0.259
B2 | -0.289
B3 | 0.219
B4 | 0.156
B5 | 0.469
B6 | -0.447
B7 | 0.139
B8 | 0.221
B9 | 0.0471
B10 | 0.215
B11 | -0.109
B12 | 0.0835
B13 | -0.103
B14 | 0.0533
B15 | -0.0253
B16 | 0.166
B17 | 0.0947
B18 | 0.25
B19 | -1.01
B20 | 0.323
B21 | 0.26
B22 | -0.049
B23 | 0.119
B24 | 0.0625
B25 | -0.841
B26 | -0.273
B27 | 0.323
B28 | 0.25
B29 | 0.304
